Measured values: publication PMC4336329 (PLoS ONE, 2015)
The whole screen tested about 310,000 compounds, of which about 2,200 (0.71%) showed an effect of 50% or more. The effect is printed as a negative number. This is one part of the list.

These molecules were tested against human ether-à-go-go-related gene (hERG) potassium channel (human, UniProt Q12809) (assay: primary screen, population patch clamp on CHO cells stably expressing hERG).
human ether-à-go-go-related gene (hERG) potassium channel, sequence (Q12809 whole entry, looked up): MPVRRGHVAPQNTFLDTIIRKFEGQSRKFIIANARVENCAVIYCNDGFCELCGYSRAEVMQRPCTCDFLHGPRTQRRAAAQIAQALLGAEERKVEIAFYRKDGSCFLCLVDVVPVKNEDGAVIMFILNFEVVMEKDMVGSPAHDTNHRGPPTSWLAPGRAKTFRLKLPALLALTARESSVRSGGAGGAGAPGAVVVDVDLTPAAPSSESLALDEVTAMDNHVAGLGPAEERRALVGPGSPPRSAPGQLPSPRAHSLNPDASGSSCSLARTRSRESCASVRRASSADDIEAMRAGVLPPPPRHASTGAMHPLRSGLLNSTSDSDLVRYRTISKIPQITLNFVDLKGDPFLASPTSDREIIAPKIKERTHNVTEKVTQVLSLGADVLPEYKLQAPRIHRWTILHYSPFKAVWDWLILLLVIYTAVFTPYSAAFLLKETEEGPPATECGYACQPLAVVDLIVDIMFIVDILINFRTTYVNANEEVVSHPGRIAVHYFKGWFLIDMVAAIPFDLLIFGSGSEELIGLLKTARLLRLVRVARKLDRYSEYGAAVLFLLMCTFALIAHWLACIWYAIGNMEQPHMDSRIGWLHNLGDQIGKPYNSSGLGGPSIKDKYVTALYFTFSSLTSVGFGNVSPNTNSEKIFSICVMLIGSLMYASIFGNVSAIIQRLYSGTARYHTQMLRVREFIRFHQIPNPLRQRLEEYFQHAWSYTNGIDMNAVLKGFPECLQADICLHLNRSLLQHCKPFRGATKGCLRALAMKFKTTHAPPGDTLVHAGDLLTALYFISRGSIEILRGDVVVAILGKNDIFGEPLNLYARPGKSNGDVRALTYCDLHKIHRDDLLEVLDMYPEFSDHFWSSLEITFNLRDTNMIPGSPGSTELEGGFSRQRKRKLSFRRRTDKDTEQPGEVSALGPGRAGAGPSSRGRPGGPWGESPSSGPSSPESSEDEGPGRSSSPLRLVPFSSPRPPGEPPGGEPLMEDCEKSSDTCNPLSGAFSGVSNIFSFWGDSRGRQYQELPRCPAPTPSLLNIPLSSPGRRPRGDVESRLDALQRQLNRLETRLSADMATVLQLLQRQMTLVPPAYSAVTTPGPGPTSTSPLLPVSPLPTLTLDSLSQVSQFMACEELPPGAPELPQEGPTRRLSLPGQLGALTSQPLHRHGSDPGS

Point of comparison: `Cc1ccc(C(=O)N2NC(c3ccc(F)cc3)C3C(=O)N(c4ccc(C)cc4)C(=O)C32)cc1` (stereo not shown), “hERG current change (%, negative = inhibition) at 1uM” value 6.46%. Against it:
- Cc1onc(-c2c(F)cccc2Cl)c1C(=O)c1ccc(F)cc1 — higher, 11.8%
- CCN1C(=O)[C@@H]2[C@@H](c3ccc(-c4ccc(Cl)c(Cl)c4)c(OC)c3)N3CCCC[C@@]3(C(=O)OC)[C@@H]2C1=O.O=C(O)C(F)(F)F — lower, -0.751%
- COc1ccc(NC(=O)CSc2nnc(Cc3cccn3C)n2-c2ccc(C)cc2)cc1OC — higher, 16.1%
- CC1(C)CC(=O)C2=C(C1)Nc1ccccc1NC2c1cccnc1 (stereo not shown) — higher, 7.57%
- CCOc1cc(C(=O)OCC(=O)c2c[nH]c3ccccc23)ccc1OCC(=O)N1CCOCC1 — lower, 4.47%
- O=C(COc1ccc(Br)cc1)N1CCN(Cc2ccc3c(c2)OCO3)CC1 — lower, -7.91%
- Cc1nnc(NCc2ccccc2)c2ccccc12 — higher, 13.7%
- O=C(Nc1ccccc1F)C(=O)Nc1cccc2ccccc12 — higher, 8.69%
- CN(C(=O)CSc1nnc(-c2ccco2)n1Cc1ccccc1)C1CCS(=O)(=O)C1 (stereo not shown) — higher, 8.83%
- O=C(CSc1n[nH]c(-c2ccco2)n1)Nc1ccccc1F — higher, 14.3%
- CC(=O)Nc1ccc(C(=O)OCC(=O)NCc2cccs2)cc1 — lower, -0.761%
- CCCCN(CC(=O)NCc1ccc(F)cc1)C(=O)c1ccco1 — higher, 12.5%
- COc1ccc(NC(=O)CN(C)S(=O)(=O)c2ccc(Cl)cc2)cc1Cl — lower, 2.38%
- CC(=O)Nc1cccc(-c2cn3ccc(C)cc3n2)c1 — lower, 5.38%
- Cc1ccc(C(=O)c2c3ccccc3[n+]([O-])n2CCC(=O)O)cc1 — higher, 17.9%
- NNc1nc(NCc2ccccc2)nc(N2CCOCC2)n1 — higher, 8.03%
- C=CCn1c2ccccc2c2nn(C)c(=S)nc21 — higher, 7.09%
- CCCCC(c1nnnn1C(C)C)N1CCN(C(=O)c2ccco2)CC1.Cl (stereo not shown) — higher, 10.7%
- CC(C)CNC(C)C(=O)Nc1ccc(S(N)(=O)=O)cc1 (stereo not shown) — higher, 14.2%
- COc1cccc(NC(=O)c2cnn(-c3ccccc3)c2C)c1 — higher, 7.81%
- COc1ccc(Cc2nnc(NC(=O)c3cccs3)s2)cc1 — lower, 5.36%
- Nc1c(C(=O)Nc2cccc(F)c2)nnn1-c1cccc(C(F)(F)F)c1 — higher, 9.98%
- COc1ccccc1N(CC(=O)Nc1ccc(Cc2ccncc2)cc1)S(=O)(=O)c1ccccc1 — higher, 9.9%
- O=C(Cn1nc(-c2ccccc2)c2ccccc2c1=O)NN1CCOCC1 — higher, 11.3%
- CC(=O)Nc1cccc(NC(=O)c2cc(-c3cccnc3)nc3ccc(Br)cc23)c1 — lower, -5.83%
- CCOc1ccccc1NC(=O)c1sc2nc(C)nc(N3CCOCC3)c2c1C — higher, 9.49%
- COC(=O)NC1CCC(NC(=O)OC)CC1 (stereo not shown) — higher, 8.6%
- CC(NC(=S)NNS(=O)(=O)c1cccc([N+](=O)[O-])c1)c1ccccc1 (stereo not shown) — higher, 12.9%
- O=C(c1ccc(F)cc1)N1CCCC(c2ccccc2)C1 (stereo not shown) — higher, 9.25%
- CC(=O)Nc1ccc2sccc2c1 — lower, 4.3%
- O=C(CN1CCc2ccccc2C1)Nc1ccc(OC(F)(F)F)cc1 — higher, 12.1%
- CC(C)NC(=O)NC(=O)COc1c(F)c(F)cc(F)c1F — higher, 8.47%
- CCOc1ccc(C(=O)NCC(=O)NC(C)c2ccc(-n3ccnc3)cc2)cc1OCC (stereo not shown) — lower, -31.3%
- Cc1nc2oc3ccc(Cl)cc3c(=O)c2cc1C(=O)O — higher, 17.1%
- CCN1CCN(C(=O)CSc2ccc(C)cc2)CC1 — higher, 13.3%
- CCCN1CCc2[nH]c(=S)[nH]c(=O)c2C1 — higher, 8.45%
- CC1CCCN(S(=O)(=O)c2ccc(NC(=O)C3CC(=O)N(c4ccccc4)C3)cc2)C1 (stereo not shown) — higher, 10.7%
- COCCn1ccc2c(OCC(=O)NCc3ccccc3)cccc2c1=O — lower, -6.65%
- CCOCC(=O)NCc1ccc2c(c1)cc(C)n2C — lower, 5.1%
- Cc1ccccc1-n1ncc(C(C)NS(=O)(=O)c2sccc2C)c1C (stereo not shown) — higher, 13.6%
- CC(C)CN(C(=O)COC(=O)CNC(=O)c1ccccc1F)C1CCS(=O)(=O)C1 (stereo not shown) — higher, 12.3%
- CC1CCC(N2CCNCC2)CC1.Cl (stereo not shown) — higher, 10.8%
- Cc1nc(C(F)(F)F)c(C(=O)NC(=O)Nc2ccccc2)s1 — higher, 11.6%
- C=CCOc1ccc(C2/C(=C(\O)c3c(C)[nH]c(C(=O)OC)c3C)C(=O)C(=O)N2CCN(C)C)cc1 (stereo not shown) — higher, 15.3%
- Cc1ccc(N2CC(C(=O)Nc3ccc(S(=O)(=O)N4CCOCC4)cc3)CC2=O)cc1 (stereo not shown) — lower, 2.69%
- O=C(O)CC(NC(=O)c1ccc2c(c1)OCO2)c1cccc([N+](=O)[O-])c1 (stereo not shown) — higher, 17.3%
- Cc1ccc2c(C)c(C(=O)N3CCC(N4CCC(C(=O)NC5CC5)CC4)CC3)oc2c1 — lower, -14.1%
- CN(Cc1ccccn1)Cc1nc(COc2ccccc2)no1 — lower, 5.17%
- CCOCC(=O)Nc1cc(C(=O)NCCc2ccccc2)ccc1Cl — lower, 2.6%
- CCOC(=O)c1nn(-c2ccccc2F)c(-c2ccccc2)c1C(=O)c1ccccc1 — higher, 10.2%
- Cc1nnc(NC(=O)CC(CN(C)S(=O)(=O)c2ccccc2)c2ccccc2)s1 (stereo not shown) — lower, -4.03%
- COC(=O)CN(c1cc(OC)ccc1OC)S(=O)(=O)c1ccc(OC)c(OC)c1 — higher, 8.76%
- Cn1ccnc1C1CCCCN1C(=O)c1cc(COc2ccc(F)cc2F)on1 (stereo not shown) — lower, -2.87%
- O=C(CCNC(=O)N1C[C@H]2C[C@@H](C1)c1cccc(=O)n1C2)Nc1cccc(Cl)c1 — higher, 11.2%
- CS(=O)(=O)NCCC1=CCCCC1 — higher, 12.6%
- O=C(CNC(=O)c1cccc(-n2cnnn2)c1)Nc1ccc(F)c(F)c1 — lower, -0.0982%
- Cc1cc(N2C(=O)C(O)=C(C(=O)c3cccs3)C2c2ccc(F)cc2)no1 (stereo not shown) — higher, 14.8%
- CN(C)c1ccc(S(=O)(=O)NCC(=O)N2CCN(c3ccccc3)CC2)cc1[N+](=O)[O-] — higher, 10.5%
- Cc1ccc(N2CCN(CC(O)COc3ccccc3)CC2)cc1 (stereo not shown) — lower, -24.2%
- O=c1c(C(c2c(O)nc3n(c2=O)CCS3)c2cccc3ccccc23)c(O)nc2n1CCS2 — lower, 0.976%
- O=C(CSc1ccc(-c2ccncc2)nn1)N1CCN(c2ccccc2)CC1 — lower, 4.87%
- O=C(c1cc(Br)ccc1Cl)N1CCN(c2ccccn2)CC1 — higher, 13%
- CS/C(=N\S(=O)(=O)c1cccs1)Nc1ccc(F)c(Cl)c1 — higher, 9.97%
- CCc1cc(C(=O)Nc2nnc(C3CC3)s2)sc1C — higher, 13.3%
- Cc1c(C)c2cc(Cl)c(OCc3nn[nH]n3)cc2oc1=O — higher, 8.06%
- Cc1ccc(CNC(=O)/C=C/c2ccccc2Cl)cc1 — higher, 13.8%
- Cc1cccc(NC(=O)c2cccc(S(=O)(=O)N3CCCCC3)c2)c1 — higher, 6.91%
- COCc1c(C(=O)NC(C)c2ccc(S(N)(=O)=O)cc2)oc2ccccc12 (stereo not shown) — higher, 15.2%
- CCOC(=O)c1c(NC(=O)COc2cccc3c2CCN(C)C3=O)sc2c1CCC2 — lower, 5.17%
- CC1CCC(NC(=O)CCCCn2c(=O)[nH]c3ccsc3c2=O)CC1 (stereo not shown) — higher, 19.8%
- COc1ccccc1NC(=O)NCCc1c[nH]c2ccccc12 — higher, 11.3%
- c1ccc(Sc2ncnc3c2oc2ccccc23)nc1 — higher, 8.05%
- C/C(=N\NC(=O)c1ccc2ccccc2c1)c1cccnc1 — higher, 15.8%
- COc1cccc(NC(=O)CSc2nc3c(oc4ccccc43)c(=O)[nH]2)c1 — lower, 6.26%
- COc1cccc(NC(=O)CSc2nnc(-c3ccco3)c(-c3ccco3)n2)c1 — lower, 3.02%
- Cc1ccc(Nc2nnc(-c3ccc4c(c3)OCO4)o2)c(C)c1 — higher, 16.4%
- O=C(NCc1ccccc1)c1ccc(F)c(S(=O)(=O)N2CCOCC2)c1 — lower, -0.874%
- C=CCOc1ccc2ccccc2c1CNc1ncn[nH]1 — lower, -11.2%
- Cc1occc1-c1nnc(SCC(=O)Nc2nc(-c3ccccc3)cs2)o1 — lower, -0.756%
- O=C(O)c1c[nH]c2ccc(S(=O)(=O)N3CCOCC3)cc12 — higher, 10.8%
- Cc1ccc(SCCC(=O)NC(C)C)cc1 — higher, 20.3%
- O=C(COc1ccc(C(=O)NCC2CCCO2)cc1)Nc1cccc(C(F)(F)F)c1 (stereo not shown) — higher, 7.2%
- COC(=O)C1=NN(c2ccccc2OC)C2C(=O)N(c3ccccc3OC)C(=O)C12 (stereo not shown) — higher, 10.8%
- CCN(CC)c1ccc(/C=N/NC(=S)NCc2ccco2)cc1 — higher, 6.9%
- COc1ccc(CCNC(=O)c2ccc(CNc3c(N4CCOCC4)c(=O)c3=O)cc2)cc1OC — higher, 7.64%
- CC(CN(C)Cc1ccccc1)OC(=O)c1ccc2c(c1)OCCO2.Cl (stereo not shown) — higher, 24.4%
- Cc1nn(C)c(C(=O)Nc2ccc(Cl)c([N+](=O)[O-])c2)c1Cl — higher, 8.62%
